The whole screen tested about 270,000 compounds, of which about 5,800 (2.1%) were called active. This list was built around the results that the source calls inconclusive (neither active nor inactive); the mix of calls is not that of the screen. The call rests on the fitted dose curve; in most records, active means well fitted inhibition curve with a large enough effect; inconclusive means small, poorly fitted or top-dose-only effect; inactive means flat fitted curve, though single readings scatter. Potencies of inconclusive entries are doubtful fits and often do not repeat.
Biological target: Microtubule-associated protein tau (Homo sapiens) (UniProt P10636)
Sequence of UniProt P10636 (P10636 whole entry, looked up): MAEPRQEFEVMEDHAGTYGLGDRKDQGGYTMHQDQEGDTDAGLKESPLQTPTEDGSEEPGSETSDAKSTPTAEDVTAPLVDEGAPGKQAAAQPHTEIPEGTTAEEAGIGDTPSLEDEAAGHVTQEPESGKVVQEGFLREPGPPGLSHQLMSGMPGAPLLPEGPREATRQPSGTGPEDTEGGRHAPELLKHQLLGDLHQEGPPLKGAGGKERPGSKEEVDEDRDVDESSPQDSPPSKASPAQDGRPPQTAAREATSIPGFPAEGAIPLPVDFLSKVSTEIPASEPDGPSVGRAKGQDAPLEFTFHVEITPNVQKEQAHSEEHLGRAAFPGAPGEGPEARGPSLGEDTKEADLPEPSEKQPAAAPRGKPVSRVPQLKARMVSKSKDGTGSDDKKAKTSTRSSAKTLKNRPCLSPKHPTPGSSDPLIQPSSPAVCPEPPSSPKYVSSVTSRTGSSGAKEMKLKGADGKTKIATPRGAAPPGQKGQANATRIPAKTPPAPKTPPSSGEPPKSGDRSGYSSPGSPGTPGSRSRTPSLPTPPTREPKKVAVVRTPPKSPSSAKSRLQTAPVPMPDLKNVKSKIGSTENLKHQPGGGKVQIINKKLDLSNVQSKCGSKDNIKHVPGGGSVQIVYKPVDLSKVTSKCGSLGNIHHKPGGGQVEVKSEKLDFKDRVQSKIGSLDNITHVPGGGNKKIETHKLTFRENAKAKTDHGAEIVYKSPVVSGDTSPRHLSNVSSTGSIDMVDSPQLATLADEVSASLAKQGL
Experiment: qHTS for Inhibitors of Tau Fibril Formation, Thioflavin T Binding; further: nearly all actives have a fitted effect of over 55% in size
Conditions: recombinant tau K18 P301L (four-repeat tau fragment), heparin-induced fibrillization, ThT fluorescence; series mostly up to 57.4 µM; activity, negative = inhibition: at the top concentration
Outline: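 In this qHTS, human K18 P301L tau is incubated with compound and heparin for 6 hr at 37 C, and Thioflavin T fluorescence then reports fibril load.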
On the % scale 0 is the no-effect control and ±100 the full control effect; potency means the concentration at half of the fitted maximal effect; tags describe the fitted curve by direction and shape.

Structure (SMILES)	Potency	activity, negative = inhibition
CCCCOc1ccc(CNC(=O)c2cccc(NC(=O)N3CCSc4ncccc43)c2)cc1	inconclusive: 44.7 µM [inhibitor, single point]	–
O=C(O)CCC(=O)Nc1nc2ccc([N+](=O)[O-])cc2s1	inconclusive: 25.1 µM [inhibitor, partial curve]	–
Cc1c(C(=O)NCc2ccc(Cl)cc2)oc2ccc3c(c12)C(=O)CC(C)(C)O3	inconclusive: 17.8 µM [inhibitor, partial curve, poor fit]	–
C=CCNC(=S)N/N=C/c1ccc(-c2cc(Cl)ccc2Cl)o1	inconclusive: 3.16 µM [inhibitor, single point]	–
CCCC[C@@H](C=O)NC(=O)[C@H](CC(C)C)NC(=O)OCc1ccccc1	inconclusive: 12.6 µM [inhibitor, partial curve]	–
O=C(NC(=S)N(CCc1ccccc1)CCc1ccccc1)c1ccco1	inconclusive: 20 µM [inhibitor, single point]	–
Cc1cc(C)cc(NC(=O)Cn2c(SCc3cc(C)ccc3C)nc3ccncc32)c1	–	inactive: -12%
Cc1csc2ncnc(NCCc3ccccn3)c12	–	inactive: 0.066%
COc1c(O)cccc1-c1nnn(CCC(=O)OCC(=O)c2ccccc2)n1	inconclusive: 12.6 µM [inhibitor, partial curve]	–
CCc1ccc(NC(=O)c2noc3c2CCC3)cc1	inconclusive: 11.2 µM [inhibitor, partial curve]	–
Cc1ccc(NCc2cccn2-c2nnc(N3CCC(C(=O)NCCc4ccc(Cl)cc4)CC3)s2)cc1	inconclusive: 12.6 µM [inhibitor, partial curve]	–
CCn1cnc2cc(NCc3nc4ccccc4n3Cc3ccccc3)ccc21	inconclusive: 15.8 µM [inhibitor, partial curve]	–
Cc1ccccc1OCC(=O)NNC(=S)NC(=O)c1ccco1	inconclusive: 17.8 µM [inhibitor, partial curve, poor fit]	–
CCc1ccccc1NC(=O)CN(C)C(=O)Cn1ncc(Cl)c(Cl)c1=O	–	inactive: -2.6%
CCOC(=O)c1cc(C#N)c(SCC(=O)OC)[nH]c1=O	inconclusive: 35.5 µM [inhibitor, single point]	–
COc1cccc(OCCn2cc(/C=N/NC(=O)c3ccncc3)c3ccccc32)c1	inconclusive: 10 µM [inhibitor, partial curve]	–
O=S(=O)(c1ccc(F)cc1)n1ccc2cccnc21	–	inactive: -3.76%
Cc1nc(Nc2c(Cl)cccc2Cl)sc1C(=O)Nc1ccccc1	–	inactive: -10.2%
CC1(C)Cc2c(c(N3CCCC3)nc3sc4c(N5CCN(CCO)CC5)ncnc4c23)CO1	inconclusive: 22.4 µM [inhibitor, single point]	–
CC(C)C1N(c2ccccc2)C(N)=C(C#N)C1(C#N)C#N (configuration not stated)	–	inactive: -14.1%
COc1ccc2nc3c(cc2c1)c(NC(=O)c1cccs1)nn3CC(C)C	inconclusive: 14.1 µM [inhibitor, partial curve]	–

Structure (SMILES)	Potency	activity, negative = inhibition
CC(=O)c1ccc(NC(=O)C2CCC(CNS(=O)(=O)c3ccc(Br)s3)CC2)cc1 (configuration not stated)	inconclusive: 1.12 µM [inhibitor, full curve]	–
CSc1ccc(/C=N\NC(=O)CNc2ccc(C)cc2)cc1	inconclusive: 12.6 µM [inhibitor, partial curve]	–
COc1ccc2oc(=O)c(C(=O)Nc3ccccc3-c3ccccc3)cc2c1	inconclusive: 14.1 µM [inhibitor, partial curve]	–
CS(=O)(=O)N1CCN(c2ccc(NC(=O)COc3ccccc3)cc2)CC1	inconclusive: 0.251 µM [inhibitor, full curve, poor fit]	–
CCC(CC)=NNc1ccc(S(N)(=O)=O)cc1[N+](=O)[O-]	inconclusive: 14.1 µM [inhibitor, partial curve]	–
O=C(C1=C(O)C(=O)N(c2ncccn2)C1c1ccc(Cl)c(Cl)c1)c1ccco1 (configuration not stated)	active: 17.8 µM	–
N#Cc1ccc(N/N=C/c2ccccc2)c([N+](=O)[O-])c1	inconclusive: 1.41 µM [inhibitor, full curve]	–
N#CC1=C(N)SC2(CCCCC2)SC1c1ccccc1 (configuration not stated)	inconclusive: 39.8 µM [inhibitor, partial curve]	–
CC1(OC(=O)c2ccco2)C(=O)C2=COC(C3CC3)=CC2=C(Br)C1=O (configuration not stated)	inconclusive: 15.8 µM [inhibitor, partial curve]	–
O=C(/C=C/c1ccc(Br)cc1)c1ccc(NC(=O)c2ccco2)cc1	inconclusive: 4.47 µM [inhibitor, full curve]	–
c1ccc2c(c1)Cc1cc3cc4c(cc3nc1-2)OCO4	active: 3.16 µM	–
COc1cccc(CNC(=O)c2c(C)nn(-c3cccc(C)c3)c2-n2cccc2)c1	inconclusive: 22.4 µM [inhibitor, single point]	–
c1ccc(N/N=C(\Cc2nc3ccccc3[nH]2)c2ccccc2)cc1	inconclusive: 17.8 µM [inhibitor, partial curve]	–
Clc1ccc(OCc2nn3c(-c4ccco4)nnc3s2)c(Cl)c1	–	inactive: -15.5%
Cc1ccc(C(=O)Nc2nc(-c3cccnc3)cs2)o1	inconclusive: 12.6 µM [inhibitor, partial curve]	–
COC(=O)[C@@]1(Cc2ccc(F)cc2)[C@H]2c3cc(C(=O)N(C)C)n(CCc4c[nH]c5ccc(OC)cc45)c3C[C@H]2CN1C(=O)c1ccccc1	inconclusive: 20 µM [inhibitor, single point]	–
CN(C)C(=O)c1ccc(-c2nc(NCc3cccnc3)c3ccccc3n2)cc1	–	inactive: -1.78%
COc1ccc(/C=C(\C#N)C(=O)OCC(=O)Nc2ccc(-c3nc4ccc(C)cc4s3)cc2)cc1	inconclusive: 2 µM [inhibitor, full curve, poor fit]	–
O=C(CCNS(=O)(=O)c1cccc2nonc12)N1CCN(c2cccc(Cl)c2)CC1	inconclusive: 28.2 µM [inhibitor, partial curve]	–
C=CCN=c1scc(-c2ccco2)n1/N=C/c1ccc(O)c(O)c1O	active: 6.31 µM	–
CCOC(=O)c1c(NC(=O)CSc2c[nH]c3ccccc23)sc2c1CCCC2	–	inactive: 2.97%
